From JP2008297320A (priority 2000, dated 2001)
Read-outs that look alike come from different tables or passages of the source.

Legend:
[1] = system: influenza virus A/PR/8/34 strain (インフルエンザウイルスA/PR/8/34株); details: Balb/C mice (female), intranasal 1.0 μmol/kg, given 7 days before infection (500 pfu)
[2] = system: influenza virus A/PR/8/34 strain (インフルエンザウイルスA/PR/8/34株); details: Balb/C mice (female), intranasal 0.3 μmol/kg; for survival rate: at 20 days after infection; for days until all mice had died: untreated mice all died by day 6

In the case of CO[C@@H]([C@@H]1OC(C(=O)O)=C[C@H](N=C(N)N)[C@H]1NC(C)=O)[C@H](O)CO [化合物B, 5-アセタミド-4-グアニジノ-2、3、4、5-テトラデオキシ-7-メトキシ-D-グリセロ-D-ガラクト-ノン-2-エノピラソン酸, reference compound], the “day on which all mice had died” value [1] was 11 days.

CCCCCCCC(=O)OC[C@@H](O)[C@@H](OC)[C@@H]1OC(C(=O)O)=C[C@H](N=C(N)N)[C@H]1NC(C)=O [化合物A, 5-アセタミド-4-グアニジノ-9-O-オクタノイル-2、3、4、5-テトラデオキシ-7-メトキシ-D-グリセロ-D-ガラクト-ノン-2-エノピラソン酸] gave a survival rate ([2]; given 4 hours before infection (1,500 pfu)) of 100%, a survival rate ([2]; given 3 days before infection (1,500 pfu)) of 83% and a survival rate ([2]; given 5 days before infection (1,500 pfu)) of 50%. The “days until all mice had died” value ([2]; given 7 days before infection (1,500 pfu)) was 11 days, the “days until all mice had died” value ([2]; given 10 days before infection (1,500 pfu)) was 8 days and the surviving mice ([1]; at 20 days after infection) was 63%.
